Measurements published in patent publication EP4431525A1 (Anaveon AG, dated 2024).

T1: His-tagged recombinant CD25 (UniProt P01589 22-213, limits assumed)
T1 construct: also called IL-2R alpha chain
T1 sequence (looked up): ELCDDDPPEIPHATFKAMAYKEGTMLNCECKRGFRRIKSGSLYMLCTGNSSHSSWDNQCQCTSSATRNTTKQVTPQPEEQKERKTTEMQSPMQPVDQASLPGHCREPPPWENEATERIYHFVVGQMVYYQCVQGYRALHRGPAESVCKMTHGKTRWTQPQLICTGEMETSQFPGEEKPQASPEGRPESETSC

T2: IL-2R on murine splenocytes (NK cells, CD8 T cells, Treg cells) (mouse, UniProt P01590 22-268; P16297 27-539; P34902 23-369)
T2 sequence (looked up) 1: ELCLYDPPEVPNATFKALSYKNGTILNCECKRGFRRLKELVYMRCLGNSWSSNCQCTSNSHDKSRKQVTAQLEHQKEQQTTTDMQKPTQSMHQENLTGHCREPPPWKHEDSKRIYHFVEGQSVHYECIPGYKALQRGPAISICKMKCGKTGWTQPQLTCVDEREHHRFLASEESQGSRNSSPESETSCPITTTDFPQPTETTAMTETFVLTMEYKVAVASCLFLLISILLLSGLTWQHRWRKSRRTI
T2 sequence (looked up) 2: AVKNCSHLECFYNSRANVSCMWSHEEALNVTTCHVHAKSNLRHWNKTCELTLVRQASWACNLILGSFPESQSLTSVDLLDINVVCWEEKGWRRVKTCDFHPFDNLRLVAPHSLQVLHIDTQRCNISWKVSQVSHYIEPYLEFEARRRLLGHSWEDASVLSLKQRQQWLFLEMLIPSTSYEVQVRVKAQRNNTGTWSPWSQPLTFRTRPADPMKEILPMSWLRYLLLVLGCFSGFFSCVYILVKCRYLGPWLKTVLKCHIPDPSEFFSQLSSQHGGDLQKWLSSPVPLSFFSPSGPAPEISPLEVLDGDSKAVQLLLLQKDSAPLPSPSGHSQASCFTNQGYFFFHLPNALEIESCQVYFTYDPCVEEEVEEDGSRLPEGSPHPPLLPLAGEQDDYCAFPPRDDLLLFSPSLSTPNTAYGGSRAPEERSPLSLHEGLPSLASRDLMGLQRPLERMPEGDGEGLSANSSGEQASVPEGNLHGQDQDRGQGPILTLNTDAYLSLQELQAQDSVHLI
T2 sequence (looked up) 3: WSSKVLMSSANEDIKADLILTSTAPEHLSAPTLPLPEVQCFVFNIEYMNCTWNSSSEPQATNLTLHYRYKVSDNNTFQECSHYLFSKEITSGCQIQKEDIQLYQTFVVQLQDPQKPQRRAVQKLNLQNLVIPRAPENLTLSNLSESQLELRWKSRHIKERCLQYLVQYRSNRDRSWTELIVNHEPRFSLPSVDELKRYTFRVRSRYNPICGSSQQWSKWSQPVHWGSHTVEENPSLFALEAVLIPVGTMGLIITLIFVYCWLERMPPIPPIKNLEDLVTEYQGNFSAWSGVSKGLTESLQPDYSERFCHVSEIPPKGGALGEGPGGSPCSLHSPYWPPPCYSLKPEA

B1: LPT269 (other)
heavy: EVQLVQSGAEVKKPGESLKISCKGSGYSFTNFYIHWVRQAPGQRLEWMGSIYPNYGDTAYNQKFKDRFVFSLDTSVSTAYLQISSLKAEDTAVYYCARGYSYAMDYWGQGTTVTVSSASTKGPSVFPLAPSSKSTSGGTAALGCLVKDYFPEPVTVSWNSGALTSGVHTFPAVLQSSGLYSLSSVVTVPSSSLGTQTYICNVNHKPSNTKVDKRV[letters of human IgG1 Fc with changes left out]
light: DIQMTQSPSSVSASVGDRVTITCSASQGISGNFHLRPRDLISNINVIVLELKGSETTFMCEYADETATIVEFLNRWITFSQSIISTLTPTSSSTKKTQLQLEHLLLDLQMILNGINNYKNPKLTRMLTFKFYMPKKATELKHLQCLEEELKPLEEVLNLAQSKGDLNWYQQKPGKAPKLLIYHTSSLHSGVPSRFSGSGSGTDFTLTISSLQPEDFATYYCQYYSKDLLTFGGGTKLEIKRTVAAPSVFIFPPSDEQLKSGTASVVCLLNNFYPREAKVQWKVDNALQSGNSQESVTEQDSKDSTYSLSSTLTLSKADYEKHKVYACEVTHQGLSSPVTKSFNRGECRTVAAPSVFIFPPSDEQLKSGTASVVCLLNNFYPREAKVQWKVDNALQSGNSQESVTEQDSKDSTYSLSSTLTLSKADYEKHKVYACEVTHQGLSSPVTKSFNRGEC
notes: Antibody C, IL-2CP in CDR-L1, linkers 0/1 AA
B2: VBE401 (other)
heavy: EVQLVQSGAEVKKPGESLKISCKGSGYAFTNYLIEWVRQMPGKGLEWMGVINPGSGGTNYNEKFKGQVTISADKSISTAYLQWSSLKASDTAMYYCARWRGEGGGFHLRPRDLISNINVIVLELKGSETTFMCEYADETATIVEFLNRWITFSQSIISTLTPTSSSTKKTQLQLEHLLLDLQMILNGINNYKNPKLTRMLTFKFYMPKKATELKHLQCLEEELKPLEEVLNLAQSKGGGGYYAYFDVWGQGTTVTVSSASTKGPSVFPLAPSSKSTSGGTAALGCLVKDYFPEPVTVSWNSGALTSGVHTFPAVLQSSGLYSLSSVVTVPSSSLGTQTYICNVNHKPSNTKVDKRV[letters of human IgG1 Fc with changes left out]
light: AIRLTQSPSSFSASTGDRVTITCKASQSVDYQGDSYMNWYQQKPGKAPKLLIYAASNLESGVPSRFSGSGSGTDFTLTISSLQSEDFATYYCQQSNEDPYTFGGGTKVEIKRTVAAPSVFIFPPSDEQLKSGTASVVCLLNNFYPREAKVQWKVDNALQSGNSQESVTEQDSKDSTYSLSSTLTLSKADYEKHKVYACEVTHQGLSSPVTKSFNRGEC
B3: LIZ707 (other)
heavy: EVQLVQSGAEVKKPGESLKISCKGSGYAFTNYLIEWVRQMPGKGLEWMGVINPGGGFYMPKKATELKHLQCLEEELKPLEEVLNLAQSKNFHLRPRDLISNINVIVLELKGSETTFMCEYADETATIVEFLNRWITFCQSIISTLTPTSSSTKKTQLQLEHLLLDLQMILNGINNYKNPKLTRMLTFKGGGSGGTNYNEKFKGQVTISADKSISTAYLQWSSLKASDTAMYYCARWRGEGYYAYFDVWGQGTTVTVSSASTKGPSVFPLAPSSKSTSGGTAALGCLVKDYFPEPVTVSWNSGALTSGVHTFPAVLQSSGLYSLSSVVTVPSSSLGTQTYICNVNHKPSNTKVDKRV[letters of human IgG1 Fc with changes left out]
light: B2 light

Assays:
[1] = target: T1, His-tagged recombinant CD25; experiment: SPR, His-CD25 captured
[2] = target: T2, IL-2R on murine splenocytes (NK cells, …); experiment: cell-based or functional assay

Row | Binder | Kd [1] [pM] | EC50 CD8 cells (pSTAT5, mouse splenocytes) [2] [nM] | EC50 NK cells (pSTAT5, mouse splenocytes) [2] [nM] | EC50 Treg cells (pSTAT5, mouse splenocytes) [2] [nM]
1 | B1 | 120 |  |  | 
2 | B2 |  | 32.2 | 34.3 | 2.6
3 | B3 |  | 12.5 | 5.3 | 3.8
